The source of these data is PubChem BioAssay AID360 (National Center for Advancing Translational Sciences (NCATS), 2006).

Among all 48,000 compounds or so, about 550 (1.1%) were called active. Not shown: some 4% with an inconclusive outcome. Cut-off read from the data, not from the text of the source: active = potency below about 15 µM; inconclusive = mostly about 16 µM to 33 µM; inactive = weaker than that. Some of the results follow. Some results are limits rather than exact numbers.
Potency is the fitted concentration of half-maximal effect.

The target of this test is Lysosomal acid glucosylceramidase (Homo sapiens) (UniProt P04062). Put plainly: Glucocerebrosidase.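 Note: the screen sought inhibitors.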 To be noted: purified enzyme, resorufin glucoside fluorescence (screen aimed at inhibitors), 20 min; series mostly up to 77 µM. Summed up: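 Wild-type enzyme at 0.2 nM final in 50mM citric acid/KH2PO4, 10mM sodium taurocholate, 0.01% tween-20, pH 5.9, with resorufin beta-D-glucopyranoside at 30 uM final. Compounds titrated, 20 min at RT, red fluorescence read; AC50 from titration.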
Chain of UniProt P04062 (P04062 whole entry, looked up): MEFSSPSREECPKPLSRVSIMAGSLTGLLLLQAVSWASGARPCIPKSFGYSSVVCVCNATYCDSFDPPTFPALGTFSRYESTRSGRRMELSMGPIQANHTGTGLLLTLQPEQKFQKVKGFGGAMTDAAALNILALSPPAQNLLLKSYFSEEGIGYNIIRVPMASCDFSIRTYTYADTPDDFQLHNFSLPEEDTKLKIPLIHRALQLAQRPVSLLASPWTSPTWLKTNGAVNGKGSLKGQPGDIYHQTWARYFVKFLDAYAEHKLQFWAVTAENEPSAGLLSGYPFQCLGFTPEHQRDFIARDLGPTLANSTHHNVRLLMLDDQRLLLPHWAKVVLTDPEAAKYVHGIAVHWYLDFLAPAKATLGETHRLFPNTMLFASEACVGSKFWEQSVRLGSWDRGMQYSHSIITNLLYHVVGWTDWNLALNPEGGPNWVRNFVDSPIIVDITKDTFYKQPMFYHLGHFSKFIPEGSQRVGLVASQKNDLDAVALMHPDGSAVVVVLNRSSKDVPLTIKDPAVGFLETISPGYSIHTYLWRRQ
Consider `CCOC(=O)N1CCN(C(=O)c2ccc3nc(N4CCCCC4)sc3c2)CC1`, for which the Potency is inactive: > 76.9 µM.

As for `CCOc1ccc(-c2nnn(CC(=O)NCc3cccs3)n2)cc1`, the Potency was inactive: > 76.9 µM.

Consider `CCCC(=O)n1nc(-c2ccc(OC)cc2)nc1N`, for which the Potency was inactive: > 76.9 µM.

With `COC(=O)C1=C(C)Nc2c(c(=O)n(C)c(=O)n2C)C1c1cccs1` (centres undefined), the Potency is inactive: > 76.9 µM.

With `O=C(NCc1cccnc1)NC1(C(F)(F)F)Oc2ccccc2O1`, the Potency result was “inactive”.

Regarding `CC(=O)CSc1ncnc2nc[nH]c12`, the Potency is inactive: > 76.9 µM.

`CCOc1ccc(C(C)=O)cc1COc1ccc(-n2cnnn2)cc1`: the Potency was inactive: > 76.9 µM.

Regarding `COC(=O)c1ccc(CSc2nnc3c(Cl)cc(Cl)cn23)o1`, the Potency is inactive: > 76.9 µM.

As for `CCOCC(=O)Nc1cccc(C(=O)OCC)c1`, the Potency is inactive: > 76.9 µM.

As for `CC1(C)CC(=O)c2cc(C(=O)NCc3ccco3)c(=O)n(-c3ccc(Cl)cc3)c2C1`, the Potency is inactive: > 76.9 µM.

Consider `Cc1cccc(Cn2c(Sc3nc(C)cs3)nc3c2c(=O)[nH]c(=O)n3C)c1`, for which the Potency was inactive: > 76.9 µM.

On to `COc1ccccc1N1CCN(CC(=O)Nc2ccc(C)c(F)c2)CC1`, for which the Potency was inactive: > 76.9 µM.

Regarding `Cn1c(CN2CCCC2)nc2cc(NS(=O)(=O)c3ccccc3)ccc21`, the Potency was inactive: > 76.9 µM.

On to `O=C(NCCO)c1c(O)c2cccc3c2n(c1=O)CC3`, for which the Potency was inactive: > 76.9 µM.

As to `CCCCCCNc1cc2n(c(=O)n1)CCc1cc(OC)c(OC)cc1-2`, the Potency was inactive: > 76.9 µM.

Consider `O=C(CCn1c(=O)oc2ccccc21)N(Cc1ccccc1)c1ccccn1`, for which the Potency is inactive: > 76.9 µM.

Regarding `COc1cc(OC)c(-c2nn3c(-c4ccco4)nnc3s2)cc1OC`, the Potency was inactive: > 76.9 µM.

In the case of `COc1ccccc1NC(=O)CCc1nc(-c2cccs2)no1`, the Potency was inactive: > 76.9 µM.

As to `Cc1nc2nc(-c3ccco3)[nH]n2c(=O)c1Cc1ccccc1`, the Potency is inactive: > 76.9 µM.

In the case of `COC(=O)COc1ccc(S(=O)(=O)N2CCOCC2)cc1C`, the Potency was inactive: > 76.9 µM.

Consider `O=C(NC1CCCC1)c1cccc(S(=O)(=O)N2CCCCC2)c1`, for which the Potency is inactive: > 76.9 µM.

As to `CCOC(=O)C1C(=O)NC(N2CCCCC2)=NC1c1ccco1` (centres undefined), the Potency is inactive: > 76.9 µM.

Turning to `C/C(N)=C(/C#N)C(=O)COC(=O)CC1CCCC1`, the Potency was inactive: > 76.9 µM.

Regarding `COCCN(C(=O)CCC(=O)Nc1cccnc1)C(C(=O)NC1CCCCC1)c1ccccc1` (centres undefined), the Potency was inactive: > 76.9 µM.

In the case of `CCCn1c(SCC(=O)c2cc(OC)ccc2OC)nnc1-c1ccco1`, the Potency was inactive: > 76.9 µM.

On to `COC(=O)c1cc(OC)c(OC)cc1NC(=O)CSc1nnnn1Cc1ccccc1`, for which the Potency entry was “inactive”.

Regarding `O=C(Nc1ccc2c(c1)OCO2)N1CCN(C(=O)C2CCCO2)CC1` (centres undefined), the Potency is inactive: > 76.9 µM.

On to `COc1ccccc1C(=O)Nn1cnc2ccccc2c1=O`, for which the Potency was inactive: > 76.9 µM.

Turning to `c1ccc(Cn2c(SCc3nc4ccccc4s3)nnc2-c2ccco2)cc1`, the Potency was inactive: > 76.9 µM.

In the case of `CCS(=O)(=O)n1nc(NCc2cccc(OC)c2)nc1NCc1cccc(OC)c1`, the Potency is inactive: > 76.9 µM.

In the case of `CC(=O)N1C(=O)N(C(C)=O)C2C1N(C(C)=O)C(=O)N2C(C)=O` (centres undefined), the Potency is inactive: > 76.9 µM.

Consider `O=C(Nc1ccccc1F)c1ccc(S(=O)(=O)NCC2CCCO2)cc1` (centres undefined), for which the Potency is inactive: > 76.9 µM.

Turning to `COc1ccc(-c2nnn(Cc3nn[nH]n3)n2)cc1OC`, the Potency was inactive: > 76.9 µM.

Consider `CCOC(=O)CN1C(=O)NC2NC(=O)NC21` (centres undefined), for which the Potency was inactive: > 76.9 µM.

For the compound `Cc1ccsc1CNn1cnnc1SCc1ccccc1F`, the Potency is inactive: > 76.9 µM.

`CN1CCCN(C(=O)c2cc(=O)[nH]c3ccccc23)c2nc3ccccc3nc21`: the Potency is inactive: > 76.9 µM.

As for `O=C(CCS(=O)(=O)c1cccc2nonc12)NCCc1ccccc1Cl`, the Potency was inactive: > 76.9 µM.

With `CCOC(=O)C1CCN(S(=O)(=O)Cc2ccccc2)C1=O` (centres undefined), the Potency was inactive: > 76.9 µM.

`CCCn1c2c(c(O)c(C(=O)NC)c1=O)CCCC2`: the Potency was inactive: > 76.9 µM.

Take `CCOCCCNC(=O)C1CCCN1S(=O)(=O)c1ccc(Cl)cc1` (centres undefined): the Potency is inactive: > 76.9 µM.

As to `O=C(Nc1nc(-c2ccccc2)ns1)c1cccs1`, the Potency is inactive: > 76.9 µM.

For the compound `CC(Oc1ccc(-c2ccccc2)cc1)C(=O)N1CCOCC1` (centres undefined), the Potency is inactive: > 76.9 µM.

Turning to `CCCC(=O)Nc1ccc2nc(SCC(=O)Nc3nccs3)sc2c1`, the Potency was inactive: > 76.9 µM.

As to `COCC(=O)NCc1nc2ccccc2[nH]1`, the Potency is inactive: > 76.9 µM.

With `CCCCCN(C(=O)NC(=O)Nn1cnnc1)S(C)(=O)=O`, the Potency was inactive: > 76.9 µM.

With `COCCNC(=O)COC(=O)c1nsc(Cl)c1Cl`, the Potency is inactive: > 76.9 µM.

As to `COCCNC(=O)CNS(=O)(=O)c1ccc2nc(C)sc2c1`, the Potency was inactive: > 76.9 µM.

Consider `COCCn1c(C)cc(C(=O)COc2nc3ccccc3nc2C)c1C`, for which the Potency was inactive: > 76.9 µM.

On to `COCCCNC(=O)CSC1=Nc2ccccc2C2=NC(Cc3c[nH]c4ccccc34)C(=O)N12` (centres undefined), for which the Potency is inactive: > 76.9 µM.

Consider `Cc1ccc(Cn2nnnc2CN2CCC(O)(c3ccc(F)cc3)CC2)cc1`, for which the Potency was inactive: > 76.9 µM.

Consider `CC(C)C(c1nnnn1Cc1ccc(F)cc1)N1CCSCC1` (centres undefined), for which the Potency is inactive: > 76.9 µM.

Regarding `COc1ccc2cc(C(c3nnnn3CC3CCCO3)N3CCOCC3)c(=O)[nH]c2c1` (centres undefined), the Potency is inactive: > 76.9 µM.

`Cc1ccc(-c2cn3c(=S)[nH]nc3s2)cc1`: the Potency is inactive: > 76.9 µM.

As to `CSc1ccccc1NS(=O)(=O)c1ccccc1`, the Potency is inactive: > 76.9 µM.

With `Cc1cc(C)nc(SCc2nnc(SCC(=O)Nc3ncc(C)s3)n2Cc2ccco2)n1`, the Potency was inactive: > 76.9 µM.

As to `CN(C)S(=O)(=O)N1CCN(S(=O)(=O)c2ccc(F)cc2)CC1`, the Potency is inactive: > 76.9 µM.

As for `Clc1ccc(Cn2ncc3c(NCc4cccnc4)ncnc32)cc1`, the Potency is inactive: > 76.9 µM.

On to `CCc1c(C)c2cc(Cl)c(O)c(CN(CC)CC)c2oc1=O`, for which the Potency was inactive: > 76.9 µM.

`Cc1ccc(CN2CC(C(=O)Nc3ccc(S(=O)(=O)Nc4cc(C)nc(C)n4)cc3)CC2=O)cc1` (centres undefined): the Potency is inactive: > 76.9 µM.
